According to the supplement of paper PMC10369915:
This is one part of the list. Cut-off read from the data, not from the text of the source: active = 3.2 or more and inactive = the rest. Only a few entries rise above the background.

How the values were obtained:
Test in all cases: enrichment score (SH2-bound / input frequency) (ratio); bacterial display of known human phosphotyrosine sites (pTyr-Var adds point mutants) read by sequencing; higher = stronger binding; tyrosines were phosphorylated by kinases first
Conditions in all cases: peptide library: Human pTyr
[1] = target: SHP2 C-SH2 domain E139D
[2] = target: SHP2 C-SH2 domain wild-type
[3] = target: SHP2 N-SH2 domain L43F
[4] = target: SHP2 N-SH2 domain T42A
[5] = target: SHP2 N-SH2 domain T52S
[6] = target: SHP2 N-SH2 domain wild-type

Measured: enrichment score
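Note: displayed peptides selected on beads carrying the immobilized SH2 domain, with library peptides lacking any tyrosine serving as negative controls.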

YMTQEGEYLPLDQRD [KCNJ4_HUMAN_234]
inactive: [1] 0.646 | [2] 0.548 | [3] 0.503 | [4] 0.719 | [5] 0.567 | [6] 0.603

SSAPQEQYGECGEKS [KAT6A_HUMAN_899]
inactive: [1] 1.04 | [2] 0.79 | [3] 0.925 | [4] 0.748 | [5] 0.953 | [6] 0.949

MKDPTNGYYNVRAHE [KIRR1_HUMAN_605]
inactive: [1] 1.31 | [2] 1.17 | [3] 1.15 | [4] 1.21 | [5] 1.35 | [6] 1.33

DIARASAYRKGGCAM [ALK_HUMAN_1283_YA]
inactive: [1] 1.21 | [2] 1.03 | [3] 0.992 | [4] 1.03 | [5] 1.26 | [6] 1.05

AIVHLINYQDDAELA [JUP_HUMAN_133]
inactive: [1] 1 | [2] 0.669 | [3] 0.786 | [4] 0.776 | [5] 0.791 | [6] 1.31

DMKPGVSYVVPTKAD [KIT_HUMAN_730]
inactive: [1] 0.91 | [2] 0.782 | [3] 0.636 | [4] 0.75 | [5] 0.592 | [6] 0.853

YEGYEGYYSQSQGDS [KHDR1_HUMAN_387]
inactive: [1] 1.49 | [2] 1.01 | [3] 0.597 | [4] 0.813 | [5] 0.772 | [6] 1.05

VMILTYKYLQKPMYE [KIT_HUMAN_547]
inactive: [1] 1.99 | [2] 1.9 | [3] 1.74 | [4] 1.73 | [5] 1.69 | [6] 2.02

MTDANPNYCFAGKTS [ALK_HUMAN_1096_YA]
inactive: [1] 0.815 | [2] 0.748 | [3] 0.743 | [4] 0.758 | [5] 0.889 | [6] 0.831

KDPTNGAYNVRAHED [KIRR1_HUMAN_606_YA]
inactive: [1] 0.775 | [2] 0.753 | [3] 0.643 | [4] 0.752 | [5] 0.782 | [6] 0.69

GFGDRNEYGSRIGGG [KHSRP_HUMAN_317]
inactive: [1] 0.633 | [2] 0.498 | [3] 0.595 | [4] 0.645 | [5] 0.58 | [6] 0.566

FVSLIDGYARLTADA [JAK2_HUMAN_372_YA]
inactive: [1] 3.16 | [3] 0.559 | [4] 0.812 | [5] 0.776 | [6] 0.732
active: [2] 8.81

VLYRIRFYFPRWYCS [JAK2_HUMAN_119]
inactive: [1] 0.94 | [2] 0.842 | [3] 1.01 | [4] 0.827 | [5] 0.988 | [6] 0.757

AWGIDEIYLESCCQA [KCNB1_HUMAN_128_YA]
inactive: [1] 0.762 | [2] 0.639 | [3] 0.755 | [4] 0.733 | [5] 0.778 | [6] 0.667

KRKRLSDYALIFGMF [KCNN1_HUMAN_109]
inactive: [1] 0.876 | [2] 0.877 | [3] 0.697 | [4] 0.658 | [5] 0.778 | [6] 0.843

VATNLSSYSPASASS [JUNB_HUMAN_188_YA]
inactive: [1] 0.669 | [2] 0.671 | [3] 0.531 | [4] 0.561 | [5] 0.732 | [6] 0.649

YWGIDEIYLESCCQA [KCNB1_HUMAN_128]
inactive: [1] 1.34 | [2] 1.28 | [3] 1.23 | [4] 1.25 | [5] 1.07 | [6] 1.68

AEGAEGAYSQSQGDS [KHDR1_HUMAN_387_YA]
inactive: [1] 0.762 | [2] 0.612 | [3] 0.62 | [4] 0.622 | [5] 0.626 | [6] 0.778

DIYRASYYRKGGCAM [ALK_HUMAN_1283]
inactive: [1] 1.18 | [2] 1.09 | [3] 0.888 | [4] 1.08 | [5] 1.15 | [6] 1.45

GAAREHPYGRAGGGG [KHDR1_HUMAN_440_YA]
inactive: [1] 1.24 | [2] 1.18 | [3] 1.05 | [4] 1.08 | [5] 1.01 | [6] 1.29

TAPGAGHYEDTILKS [ALK_HUMAN_1604]
inactive: [1] 0.714 | [2] 0.608 | [3] 0.62 | [4] 0.588 | [5] 0.706 | [6] 0.64

ANLSEDEYASEEERN [KDM1A_HUMAN_135_YA]
inactive: [1] 1.27 | [2] 1.1 | [3] 1.24 | [4] 1.18 | [5] 1.32 | [6] 1.48

GDCCAEEYKDRKREN [KCND3_HUMAN_136_YA]
inactive: [1] 0.748 | [2] 0.711 | [3] 0.651 | [4] 0.625 | [5] 0.881 | [6] 0.6

KYLQKPMYEVQWKVV [KIT_HUMAN_553]
inactive: [1] 1.78 | [2] 1.91 | [3] 1.6 | [4] 1.45 | [5] 1.84 | [6] 2.39

GPEPPPVYTNLSSAS [JUNB_HUMAN_182_YA]
inactive: [1] 0.639 | [2] 0.519 | [3] 0.6 | [4] 0.545 | [5] 0.479 | [6] 0.693

FDAILYYYQSGGRIR [KCNA3_HUMAN_163]
inactive: [1] 1.24 | [2] 0.762 | [3] 1.15 | [4] 0.744 | [5] 0.79 | [6] 1.25

KHKATEQYYAMKILD [KAPCB_HUMAN_69]
inactive: [1] 2.64 | [2] 2.68 | [3] 2.63 | [4] 2.45 | [5] 2.47
active: [6] 3.49

AARQQAAYAGQTPGP [KHSRP_HUMAN_688_YA]
inactive: [1] 0.478 | [2] 0.489 | [3] 0.439 | [4] 0.545 | [5] 0.55 | [6] 0.723

MTDYNPNYCFAGKTS [ALK_HUMAN_1096]
inactive: [1] 1.25 | [2] 1.16 | [3] 1.37 | [4] 0.953 | [5] 1.26 | [6] 1.19

FSEEIRFYQLGEEAM [KCNA3_HUMAN_187]
inactive: [1] 0.747 | [2] 0.598 | [3] 0.732 | [4] 0.683 | [5] 0.745 | [6] 0.692

EYLGTKRYIHRDLAT [JAK2_HUMAN_972]
inactive: [1] 0.937 | [2] 0.887 | [3] 0.751 | [4] 0.878 | [5] 1.03 | [6] 1.08

SLRLVMEYLPSGCLR [JAK3_HUMAN_904]
inactive: [1] 1.95 | [2] 1.42 | [3] 1.63 | [4] 1.6 | [5] 1.8 | [6] 1.83

EALGTKRYIHRDLAT [JAK2_HUMAN_972_YA]
inactive: [1] 0.829 | [2] 0.726 | [3] 0.773 | [4] 0.843 | [5] 0.993 | [6] 1.04

GDDLDPNYVLSSRVR [KCRB_HUMAN_125]
inactive: [1] 0.643 | [2] 0.622 | [3] 0.585 | [4] 0.522 | [5] 0.681 | [6] 0.588

GKLHAPRYECISAAD [KCND3_HUMAN_108_YA]
inactive: [1] 1.73 | [2] 1.66 | [3] 1.46 | [4] 1.46 | [5] 1.76 | [6] 2.24

FGMARDIYRASYYRK [ALK_HUMAN_1278]
inactive: [1] 0.495 | [2] 0.553 | [3] 0.541 | [4] 0.678 | [5] 0.615 | [6] 0.698
